Experiment: In vitro permeability study in 6 station Franz diffusion cell apparatus using porcine buccal mucosa
Conditions: neutral media: artificial saliva (pH=6.8), real saliva (pH=7.3), phosphate buffer solution (pH=7); FIG. 6

CN(C)CCc1c[nH]c2cccc(OP(=O)(O)O)c12 [psilocybin, [3-(2-Dimethylaminoethyl)-1H-indol-4-yl]dihydrogen phosphate]
diffusion through porcine buccal mucosa: not able to permeate

From US20240189331A1, “NOVEL […] FILM FORMULATION” (INTELGENX CORP., priority 2021, published 2024)
